Laboratory results as given in PubChem BioAssay (NCATS).
Inconclusive results, whose numbers are uncertain, are shown with a selection of clear calls. Potencies of inconclusive entries are left out as doubtful fits. Calls of active or inactive are those of the source. Calls follow the shape of the dose curve; as a rule, active = well fitted cell-killing curve with a large enough effect; inconclusive = small, poorly fitted or top-dose-only effect; inactive = no such curve, though single readings can be large or run the other way.

Experiment: qHTS of pediatric cancer cell lines to identify multiple opportunities for drug repurposing: Primary screen for OHS-50 cells (AID 1347103); also: nearly all actives have a fitted effect of over 40% in size;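 as to activity change, negative = cytotoxic: plate controls were DMSO neutral control for no effect and bortezomib positive control for full effect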
Conditions: OHS-50 osteosarcoma viability, CellTiter-Glo luminescence, 48 h; activity change, negative = cytotoxic: at 57.3 µM (top of the series)
How it was run: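 Cells (500-1,000/well) rested 5 h, then received compounds for 48 h; metabolically active cells were measured by CellTiter-Glo luminescence. Final concentrations spanned up to 46 µM (MIPE, 11-point) or 0.59 nM-46 µM (NPC, 8-point) in primary screens, 11-point in follow-ups.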
Potency is read from the fitted curve at half-maximal effect; tags tell the direction and shape of the fitted curve.

Structure (SMILES) | activity change, negative = cytotoxic | Potency
CCN(C(C)=O)c1cccc(-c2ccnc3c(C#N)cnn23)c1 | inactive: -4.7% | –
CNCC(=O)c1ccc(O)c(O)c1 | inactive: -17.2% | –
C=C1C[C@@H]2[C@H](CC[C@]3(C)C(=O)CC[C@@H]23)[C@@]2(C)C=CC(=O)C=C12 | – | inconclusive [cytotoxic, single point]
Cc1c(Cl)c(=O)oc2cc(OP(=O)(OCCCl)OCCCl)ccc12 | inactive: 38.1% | –
CCOP(=O)(NC(C)C)Oc1ccc(SC)c(C)c1 (stereo not drawn) | – | inconclusive [cytotoxic, partial curve]
COc1ccc2c3c1O[C@H]1[C@H](O)CC[C@H]4[C@@H](C2)N(C)CC[C@@]341 | inactive: -5.79% [at 116 µM] | –
CCN1CCCC1CNC(=O)C(O)(c1ccccc1)c1ccccc1 (stereo not drawn) | inactive: -8.76% | –
CC1COC2(c3ccccc3Cl)c3cc(Cl)ccc3NC(=O)CN12 (stereo not drawn) | – | inconclusive [cytotoxic, partial curve]
C#C[C@]1(O)C=C[C@H]2[C@@H]3CCC4=CC(=O)CC[C@@H]4[C@H]3CC[C@@]21CC | – | inconclusive [cytotoxic, partial curve, poor fit]
Nc1ccc(N)cc1 | inactive: 6.04% | –
Nc1ccc([As](=O)(O)O)cc1 | inactive: 6.57% | –
Cc1cc(SCc2sc(-c3ccc(C(F)(F)F)c(F)c3)nc2C)ccc1OCC(=O)O | – | inconclusive [cytotoxic, partial curve]
O=C(O)CNC(=O)c1c(O)c2ccccc2n(Cc2ccccc2)c1=O | – | inconclusive [cytotoxic, partial curve, poor fit]
